Out of some 48,000 compounds screened, about 550 (1.1%) were called active. Another 4% or so got no clear call; they are omitted. No stated cut-off is given here; in the data, active means potency below about 15 µM; inconclusive means mostly about 16 µM to 33 µM; inactive means weaker than that. The list shows a part of the results.
Each compound was assayed against Lysosomal acid glucosylceramidase (Homo sapiens) (UniProt P04062) (assay: Glucocerebrosidase). Details: purified enzyme, resorufin glucoside fluorescence (screen aimed at inhibitors), 20 min; series mostly up to 77 µM.
Procedure, shortened: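 Compounds titrated against 0.2 nM normal enzyme, 30 uM resorufin beta-D-glucopyranoside substrate, citrate/phosphate buffer with taurocholate and tween-20, pH 5.9. Reaction ran 20 min at room temperature; fluorescence (Ex 548/Em 600) gave AC50.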
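Further: the screen sought inhibitors.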
Potency means the concentration at half of the fitted maximal effect.

Chain of UniProt P04062 (P04062 whole entry, looked up): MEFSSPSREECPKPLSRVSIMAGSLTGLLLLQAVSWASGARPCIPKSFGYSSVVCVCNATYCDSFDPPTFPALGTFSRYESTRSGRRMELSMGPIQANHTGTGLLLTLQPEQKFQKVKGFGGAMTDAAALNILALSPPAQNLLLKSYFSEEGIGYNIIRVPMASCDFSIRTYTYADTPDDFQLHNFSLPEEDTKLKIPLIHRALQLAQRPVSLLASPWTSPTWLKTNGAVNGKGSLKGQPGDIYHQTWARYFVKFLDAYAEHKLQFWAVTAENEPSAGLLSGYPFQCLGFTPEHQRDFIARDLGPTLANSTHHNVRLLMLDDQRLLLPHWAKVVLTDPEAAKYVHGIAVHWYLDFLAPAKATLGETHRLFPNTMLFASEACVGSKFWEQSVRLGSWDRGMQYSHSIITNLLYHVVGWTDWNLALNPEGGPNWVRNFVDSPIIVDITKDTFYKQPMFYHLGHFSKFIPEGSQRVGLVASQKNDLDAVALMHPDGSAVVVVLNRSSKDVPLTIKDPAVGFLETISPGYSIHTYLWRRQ

SMILES | Potency
COC(=O)c1ccc(COC(=O)c2ccc(N(C)C)cc2)cc1 | inactive: > 76.9 µM
Oc1ccccc1-c1cc(C(F)(F)F)[nH]n1 | inactive: > 76.9 µM
Cc1ccc(C)c2[nH]c(=O)c(CN(CC3CCCO3)C(=O)NC3CCCCC3)cc12 (stereo unspecified) | inactive: > 76.9 µM
CCCS(=O)(=O)N1CCC(C(=O)NCCCN(C)Cc2ccccc2)CC1 | inactive: > 76.9 µM
CC1Cc2ccccc2N1Cc1nc2scc(-c3cccs3)c2c(=O)[nH]1 (stereo unspecified) | inactive: > 76.9 µM
CCC(=O)N(c1ccc(F)cc1)C1C=CS(=O)(=O)C1 (stereo unspecified) | inactive: > 76.9 µM
COC(=O)c1cc(COc2ccc3ccc(=O)oc3c2)c(C)o1 | inactive: > 76.9 µM
CCOC(=O)NC(Nc1ccc(S(N)(=O)=O)cc1)(C(=O)OCC)C(F)(F)F (stereo unspecified) | inactive: > 76.9 µM
CCOc1ccc(OCC)c(NC(=O)C2CCCN(c3nc(C)cc(C)n3)C2)c1 (stereo unspecified) | inactive: > 76.9 µM
Cc1ccc(-c2nnc(CSc3nncn3N)o2)cc1 | inactive: > 76.9 µM
COC(=O)C1C2C=CC3(CN(C4CCCC4)C(=O)C13)O2 (stereo unspecified) | inactive: > 76.9 µM
COc1ccc(NC(=O)Nc2ccc(N(C)C)cc2)cc1 | inactive: > 76.9 µM
O=S(=O)(N1CCCCCC1)N1CCN(S(=O)(=O)N2CCOCC2)CC1 | inactive: > 76.9 µM
Cc1nc(=O)c(-c2ccccc2)c(C)n1-c1cccc(C(=O)O)c1 | inactive: > 76.9 µM
CC(=O)Nc1ccc(Cl)cc1C(=O)O | inactive: > 76.9 µM
CCCC(=O)N(c1ccc2oc(=O)sc2c1)S(=O)(=O)c1ccccc1 | inactive: > 76.9 µM
O=C(c1ccco1)N1CCN(CC2CC3C=CC2C3)CC1 (stereo unspecified) | inactive: > 76.9 µM
COc1ccc(OC)c(C(=O)c2nc3c(n2O)CCCCC3)c1 | inactive: > 76.9 µM
CCOc1ccc(N2CC(C(=O)Nc3ccccc3F)CC2=O)cc1 (stereo unspecified) | inactive: > 76.9 µM
CC1(C)CC(=O)C=C(NCCCN2CCCC2=O)C1 | inactive: > 76.9 µM
CC(=O)Nc1cccc(-c2nnc(-c3ccccc3)o2)c1 | active: 13.9 µM
O=C(CSc1nnc2ccccn12)N1CCOCC1 | inactive: > 76.9 µM
CCOc1cc(-c2nc(-c3ccc(C)nc3OC)no2)cc(OCC)c1OCC | inactive: > 76.9 µM

SMILES | Potency
Cc1ccc(Nc2nc(N)nc(CC#N)n2)cc1 | inactive: > 76.9 µM
CCOC(=O)C1C2C=CC3(CN(CCc4ccccc4)C(=O)C13)O2 (stereo unspecified) | inactive: > 76.9 µM
O=c1cc(N2CCC3(CC2)OCCO3)[nH]c(=O)n1-c1ccc(Br)cc1 | inactive: > 76.9 µM
O=C(CCN1C(=O)c2ccccc2C1=O)Nc1ccccn1 | inactive: > 76.9 µM
CCOC(=O)c1sc(NC(=O)CSc2ncn[nH]2)c(C#N)c1C | inactive: > 76.9 µM
Cc1ccc(-n2c(SCC(N)=O)nnc2-c2cccnc2)c(C)c1 | inactive: > 76.9 µM
COc1ccc(C(=O)Nc2ccc(N3CCN(c4ccc(OC)cc4)CC3)c(C#N)c2)cc1 | inactive: > 76.9 µM
O=C1C(=O)N(CCO)C(c2cccc(F)c2)/C1=C(\O)c1ccc(Cl)cc1 (stereo unspecified) | inactive: > 76.9 µM
COc1cccc(NC(=O)CNC(=O)c2cccs2)c1 | inactive: > 76.9 µM
CCc1ccccc1NC(=O)CN1CCC(NC(=O)COC)CC1 | inactive: > 76.9 µM
Cc1cc(=O)oc2cc(OCc3ccc(S(=O)(=O)N4CCOCC4)cc3)ccc12 | inactive: > 76.9 µM
COCCOC(=O)C1=C(N)OC2=C(C(=O)CC(C)(C)C2)C1c1cccnc1 (stereo unspecified) | inactive: > 76.9 µM
O=C1N(Cc2ccc3c(c2)OCO3)c2ccccc2C1(O)c1c[nH]c2ccccc12 (stereo unspecified) | inactive: > 76.9 µM
CCOc1ccc(CNC23CN4CN(CN(C4)C2)C3)cc1 | inactive: > 76.9 µM
CCNC(=O)N1C(=O)C2(OCCO2)c2ccccc21 | inactive: > 76.9 µM
O=C(Cn1ccc2ccccc2c1=O)NCCC(=O)NC1CCN(Cc2ccccc2)CC1 | inactive: > 76.9 µM
Cn1ccnc1SCC(=O)c1cc2ccccc2o1 | inactive: > 76.9 µM
O=C(COc1nnc2ccccn12)N1CCN(S(=O)(=O)c2ccccc2)CC1 | inactive: > 76.9 µM
CCOC(=O)Cc1c(C)nc2c(C#N)c(C)nn2c1C | inactive: > 76.9 µM
CC(NC(=O)CC(O)(C(F)(F)F)C(F)(F)F)c1ccccc1 (stereo unspecified) | inactive: > 76.9 µM
O=C(O)CSc1nc2ccc(Cl)cc2[nH]1 | inactive: > 76.9 µM
Cc1ccccc1NC(=O)NCc1ccco1 | inactive: > 76.9 µM
Cc1ccc(/C(O)=C2\C(=O)C(=O)N(c3cc(C)on3)C2c2cccc(Cl)c2)cc1 (stereo unspecified) | inactive: > 76.9 µM

SMILES | Potency
Cc1ccc(N(CC(=O)NCc2ccncc2)S(C)(=O)=O)cc1Cl | inactive: > 76.9 µM
CCCS(=O)(=O)N1CCC(C(=O)N2CCN(C(=O)OCC)CC2)CC1 | inactive: > 76.9 µM
COc1cc(NC(=O)C2CC(c3cccc(OC)c3OC)=NO2)cc(OC)c1OC (stereo unspecified) | inactive: > 76.9 µM
S=P(c1ccc(N2CCOCC2)cc1N1CCOCC1)(N1CCOCC1)N1CCOCC1 | inactive: > 76.9 µM
Cc1cc(-c2nnc(SCc3ccccn3)o2)no1 | inactive: > 76.9 µM
COCCNC(=O)CN(C(=O)CCC(=O)Nc1ccccn1)c1ccc(F)c(Cl)c1 | inactive: > 76.9 µM
O=C(NCc1ccc2c(c1)OCO2)c1ccc(-c2ccc(Cl)cc2)o1 | inactive: > 76.9 µM
CCOC(=O)CC1=CC(=O)Nc2ccccc2N1 | inactive: > 76.9 µM
C=CCSc1nc2c(cc1C#N)CCC2 | inactive: > 76.9 µM
Cc1ccc(C(C)NC(=O)C2CCCO2)cc1C (stereo unspecified) | inactive: > 76.9 µM
CCOCCCNC(=O)C(c1ccc(Cl)cc1)N1CCC2(CC1)OCCO2 (stereo unspecified) | inactive: > 76.9 µM
CCOC(=O)c1cc2sc(C)cc2n1CC(=O)N1CCc2ccccc21 | inactive: > 76.9 µM
COc1ccc(NC(=O)CS(=O)CC(=O)NCc2cccc(C(F)(F)F)c2)cc1 (stereo unspecified) | inactive: > 76.9 µM
COCCCNC(=O)C1CC(=O)N(c2ccc(C)cc2)C1 (stereo unspecified) | inactive: > 76.9 µM
Cc1c(NC(=O)c2cnn3cccnc23)c(=O)n(-c2ccccc2)n1C | inactive: > 76.9 µM
CCOCCc1nnc(NC(=O)CSc2ccccc2)s1 | inactive: > 76.9 µM
O=C(OCCN1C(=O)c2ccccc2C1=O)C1CCN(S(=O)(=O)c2cccs2)CC1 | inactive: > 76.9 µM
Nn1c(SC/C=C/c2ccccc2)nnc1-c1cccnc1 | inactive: > 76.9 µM
C=CCNS(=O)(=O)c1cccc2cc(C(=O)O)c(O)cc12 | inactive: > 76.9 µM
COc1ccc(Cl)cc1C(=O)Nc1ccccc1N1CCN(C)CC1 | inactive
COc1cc(OC)c(C(=O)NC2CC(C)(C)NC(C)(C)C2)cc1OC | inactive: > 76.9 µM
Cc1ccc(C)c2[nH]c(=O)c(CN(CC3CCCO3)S(=O)(=O)c3ccc4c(c3)OCCO4)cc12 (stereo unspecified) | inactive: > 76.9 µM
CC(C)C(C(=O)NC1CCCCC1)N(CC1CCCO1)C(=O)CNS(=O)(=O)c1ccc(F)cc1 (stereo unspecified) | inactive: > 76.9 µM

SMILES | Potency
C#CCSc1nnc(-c2ccccc2)c(=O)[nH]1 | inactive: > 76.9 µM
COc1ccc(Cl)cc1NC(=O)CN(C1CCCCC1)S(C)(=O)=O | inactive: > 76.9 µM
Cc1nnc(SCC(=O)c2cc(C)n(-c3c(C)n(C)n(-c4ccccc4)c3=O)c2C)s1 | inactive: > 76.9 µM
COCCSc1ccccc1C(=O)Nc1nnc(COC)s1 | inactive: > 76.9 µM
COc1ccc(NC(=O)C2CCC(=O)N2S(=O)(=O)c2ccc(C)cc2)c(OC)c1 (stereo unspecified) | inactive: > 76.9 µM
O=S(=O)(Nc1ccc(F)cc1)N1CCCCCC1 | inactive: > 76.9 µM
Cc1ccc2c(c1)N(CC(=O)O)C(=O)CO2 | inactive: > 76.9 µM
CCC(=O)Nc1c2c(nc3c1CCC3)CCCC2 | inactive: > 76.9 µM
CC1CCCCN1Cc1nc2c(c(=O)n(C)c(=O)n2C)n1CCc1ccccc1 (stereo unspecified) | inactive: > 76.9 µM
CC(=O)Cn1c(N2CCC(Cc3ccccc3)CC2)nc2c1c(=O)[nH]c(=O)n2C | inactive: > 76.9 µM
Cc1csc(NC(=O)C2CCC(C)(C(=O)O)C2(C)C)n1 (stereo unspecified) | inactive: > 76.9 µM
O=C1Nc2ccccc2C12OC1CCCCC1O2 (stereo unspecified) | inactive: > 76.9 µM
Cc1ccc(-c2c3c(=O)n(C)c(=O)n(C)c3c3nnc4ccccc4n23)cc1 | inactive: > 76.9 µM
O=C(Nc1cccc(NC(=O)c2ccc(Br)o2)n1)c1ccc(Br)o1 | inactive: > 76.9 µM
CCc1nnc(NC(=O)C(NS(=O)(=O)c2ccc3c(c2)OCCO3)C(C)C)s1 (stereo unspecified) | inactive: > 76.9 µM
O=C(CCS(=O)(=O)c1cccc2nsnc12)N1CC(=O)N(CCc2ccccc2)C(=O)C1 | inactive: > 76.9 µM
O=S1(=O)N=C(Nc2nc3c(s2)CCCC3)c2ccccc21 | inactive: > 76.9 µM
CCOC(=O)c1sc(NC(=O)CSc2nnc(Cc3ccccc3)o2)c(C#N)c1C | inactive: > 76.9 µM
CC1Cc2cc(/C(O)=C3/C(=O)C(=O)N(CC4CCCO4)C3c3ccco3)ccc2O1 (stereo unspecified) | inactive: > 76.9 µM
CCC(=O)Nc1nc2ccc(NC(C)=O)cc2s1 | inactive: > 76.9 µM
COc1cccc(C2CC(c3ccccc3Cl)Nc3ncnn32)c1 (stereo unspecified) | inactive
COc1cc(C)nc(N2CCCC(C(=O)NC3CCC(C)CC3)C2)n1 (stereo unspecified) | inactive: > 76.9 µM

From PubChem BioAssay AID360 (National Center for Advancing Translational Sciences (NCATS), 2006)
